For 14 molecules, binding signal results are on record in PMC12136788.

The labels stand for the following.
B1: chr6:169419968:169421160:-|three_prime_utr|ENSG00000285733|control|control|control (ssRNA)
RNA: GGGAGUUCUACAGUCCGACGAUCUGGCAGGAGGGGAGGCGUUUAUGAGAGUCCCCGGUGGGCACAUAUUAAAAAAAGCUAAGUAGAAAAAUCACUGAGAACUCAUAACUGGUCAAUGAGUUCAGGUAGACAAUGAGGGAGGGUCAACAGAGGAUUGAGCAUCA
B2: chrX:155260805:155261229:-|CDS|ENSG00000155961|control|control|control (ssRNA)
RNA: GGGAGUUCUACAGUCCGACGAUCUGGUCUUCUCUUAUUUGACAUUACCAACCGCAGGUCCUUCCAGAAUGUCCAUGAGUGGUUAGAAGAGACCAAAGUACACGUUCAGCCCUACCAAAUUGUAUUUGUUCUGGUGGGUCACAACAACAGAGGAUUGAGCAUCA
B3: chr11:46383557:46383658:+|3pUTR|ENSG00000110492|msi1_unk|total|mutant (ssRNA)
RNA: GGGAGUUCUACAGUCCGACGAUCCCACGCCCUCCCUCUCCCAGGCCCGAGAUGUGACCCACCAGUGCCUUCUGUCUGCUCGUCCGCUUUAAUCAAUCAUGCCCUGCCUUGUCCCUCUCACUCCCCAGCCCCACCCCUAAGUGCCAACAGAGGAUUGAGCAUCA
B4: chr17:4897770:4898853:-|three_prime_utr|ENSG00000108556|control|control|control (ssRNA)
RNA: GGGAGUUCUACAGUCCGACGAUCUCCUCGGGGCCUACUUCAACCGAGUGCCUGAUCUCCCCUACGCGCCGUGUAUCCAGCCUUAGCUCGCACCGACUUCAAUUUCCCACCCAUCUCCAGUAGGAAAUUGAUUUUGAAAAAGUACAACAGAGGAUUGAGCAUCA
B5: chr22:29555535:29555644:-|3pUTR|ENSG00000184117|unk|total|mutant (ssRNA)
RNA: GGGAGUUCUACAGUCCGACGAUCUUCCUCAUCUCAAGGCCACCAGUCCCCAGUUAUCACCCUUGGAAAUCCUCUGUUCCGCUCCGUUGCACAAAAGGCCGUAUGUCCAGUGGCCCGAGGUGGGGUGGGAAGAGAGGAGGCCAGCAACAGAGGAUUGAGCAUCA
B6: chr22:40825413:40825514:-|3pUTR|ENSG00000100380|msi1|total|mutant (ssRNA)
RNA: GGGAGUUCUACAGUCCGACGAUCGGUAAUACCCACAACAACUGCCGUUUCUUACUUGGCCAAGAGAAUGCUUAUUUAAGUGUCCGACUUCCAUUCUGGCAAAAUCUUGCCUUAUCAGAAGACAUUGGAAAGAGGGAUUCCCUUCAACAGAGGAUUGAGCAUCA
B7: chr3:27376575:27376676:-|3pUTR|ENSG00000033867|msi1|total|mutant (ssRNA)
RNA: GGGAGUUCUACAGUCCGACGAUCCUAUAUAUAAGAAUAUUGUAUGUCAUGCUGUUUAUGUGUGACUACCGGGUUUUUAAAAGCCGUGUCUGGAGUUUGUAAUGAGCACCGUGGAGACUAUGUAUUUAAUGAAAUGCUCUCUUUCAACAGAGGAUUGAGCAUCA
B8: chr8:143915815:143915916:-|3pUTR|ENSG00000178209|msi1|FALSE|unique (ssRNA)
RNA: GGGAGUUCUACAGUCCGACGAUCGCCAGGUGCCUUGGAGGGUCCCAAGCUGGGCCCCAGCCCACCCUCCUGUCUUCCCAGGGUAGCCCGCCUGCCAGUCCUAGCUGCACAGGGCAGCUGGGCCCAACCCUGUCUGUAGAGGGCCAACAGAGGAUUGAGCAUCA
B9: chr10:7163078:7163179:-|3pUTR|ENSG00000198879|unk|total|mutant (ssRNA)
RNA: GGGAGUUCUACAGUCCGACGAUCAGAGGUGCCUUUCCGGAAUACGGGGAGUGAAGGAAGGCCGGCAGGCAUCUCCAUGCAACCCGAUGGUUUGUUUGUUUGUUUGUUUGUUUGUUGUUCAUUUUGUUGUGUUUUUUGAGACAGCAACAGAGGAUUGAGCAUCA
B10: chr18:67512643:67512744:-|CDS|ENSG00000171451|unk|total|mutant (ssRNA)
RNA: GGGAGUUCUACAGUCCGACGAUCGCCAUGAUGGAUGUGUGGGAUGCACAUUACAAAAUGUUUUGGUUUGAUCAUCAUGGCAACCGUCCCAUGGCCAGUAUACAGGAAGCAGAGCAAGCUGCUGAAUUUAAAAAACGAUGGACUCAACAGAGGAUUGAGCAUCA
B11: chr15:41900134:41900198:-|3pUTR|ENSG00000103966|msi1_unk|FALSE|overlapping (ssRNA)
RNA: GGGAGUUCUACAGUCCGACGAUCAGGGCACCUGGAGGCAGCAAAGAUUAUCUUAUUUAUUUUAUUUUGUUUUCUGCUAUAUUUAGAGUGGCAAAAAAAUAGAGCAGAGGGUUUCUGCUGUCUCCAGACUGUCUACCAAAGAGACAACAGAGGAUUGAGCAUCA
B12: chr10:89738052:89738153:+|CDS|ENSG00000138182|unk|total|mutant (ssRNA)
RNA: GGGAGUUCUACAGUCCGACGAUCCUGGAACAACAAAUUGAAAAAUUGCAGGCAGAAGUAAAAGGCUAUAAGGAUGAAAACAACCGACUAAAGGAGAAGGAGCAUAAAAACCAAGAUGACCUACUAAAAGAAAAAGAAACUCUUCAACAGAGGAUUGAGCAUCA
B13: ENSG00000198589:be:win_6751|CDS|ENSG00000198589|bound_else_gene|NA|bound_elsewhere_windowed (ssRNA)
RNA: GGGAGUUCUACAGUCCGACGAUCUUGCCCACCAACUUCAGAGAUUUGUCCAAGCCAAUAGGAGCUCUGAACCCAAAAAGAGCAGCAUUCUUCGCUGAGCGUUAUGAAUCAUGGGAAGAUGAUCAAGUUCCAAAGUUUCACUAUCAACAGAGGAUUGAGCAUCA
B14: chr1:77728514:77728621:-|CDS|ENSG00000077254|unk|FALSE|unique (ssRNA)
RNA: GGGAGUUCUACAGUCCGACGAUCAGAUCCGCAAACCAUAACCACUGAGGAGACAAUGGAAGAAGACAAGAGCCAGUCGGAUGUAGAUUUUCAGUCUUGUGAAUCUUGUAGCAACAGUGAUAGAGCAGAAAAUGAAAAUGGCUCCAACAGAGGAUUGAGCAUCA

This is one part of the list.

This test concerns the target MSI1 full-length (mouse, UniProt Q61474 1-362). The test is described as follows: nsRBNS (natural sequence RNA bind-n-seq); RBNS binding buffer (assumed for nsRBNS): 25 mM Tris pH 7.5, 150 mM KCl, 3 mM MgCl2, 0.01% Triton X-100, 500 ug/ml BSA, 20 U/ml SUPERase-In, 4 C; UNK is unkempt and MSI1 is Musashi-1; names of the RNAs are library labels; protein concentration not given here; high values mean tight binding.
UniProt Q61474, sequence (Q61474 whole entry): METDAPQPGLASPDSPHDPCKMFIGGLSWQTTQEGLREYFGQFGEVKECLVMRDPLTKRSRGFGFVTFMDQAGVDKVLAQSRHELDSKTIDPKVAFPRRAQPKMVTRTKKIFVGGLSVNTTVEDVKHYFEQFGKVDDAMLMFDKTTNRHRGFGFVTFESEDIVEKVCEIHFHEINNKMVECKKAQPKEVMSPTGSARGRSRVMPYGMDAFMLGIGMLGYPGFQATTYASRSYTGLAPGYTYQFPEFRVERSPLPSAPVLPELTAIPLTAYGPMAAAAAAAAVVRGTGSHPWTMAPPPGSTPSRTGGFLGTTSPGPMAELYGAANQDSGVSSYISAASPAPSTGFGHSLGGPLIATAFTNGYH
The molecule B1 had a binding signal of 2.23 enrichment R. For B2 the value was 0.483 enrichment R; for B3, 1.03 enrichment R. The result for B4 reads 0.499 enrichment R; that for B5, 0.632 enrichment R; that for B6, 0.281 enrichment R. The molecule B7 registered a binding signal of 0.634 enrichment R. For B8 the value was 0.531 enrichment R. For B9 the value was 1.09 enrichment R; for B10, 0.334 enrichment R. For B11 the value was 0.421 enrichment R; for B12, 0.507 enrichment R. With B13, the binding signal is 0.357 enrichment R. For B14 the value was 0.731 enrichment R.
